# Assay results as given in patent publication US20260209260A1, “VECTORIZED NHC IRIDIUM(III) COMPLEXES AND USE THEREOF IN PHOTODYNAMIC THERAPY AND/OR DIAGNOSTIC” (CENTRE NATIONAL DE LA RECHERCHE SCIENTIFIQUE, priority 2022, published 2026).
# Some entries share one result that the patent states for a list of compounds.
# Assay: UV/Vis absorption spectra
# Format: physicochemical
# Settings: CH2Cl2 or CH2Cl2/MeOH (1:1), room temperature
# Procedure: UV/Vis absorption spectra were recorded at RT on solutions contained in quartz cuvettes (optical pathlength 1 cm, Hellma®) with a PerkinElmer® UV/VIS/NIR spectrophotometer Lambda 950 and a PerkinElmer® detector UV/VIS/NIR Accessory 2D Detector Module.
row,SMILES,"maximum absorption, lowest-lying bands in the visible region over 360 nm"
1,F[P-](F)(F)(F)(F)F.O=C(CCCC[C@@H]1SC[C@@H]2NC(=O)N[C@@H]21)NCCCn1cc[n+]2[c]1[Ir-3]13([c]4ccccc4-c4sc5ccccc5[n+]41)([c]1ccccc1-c1sc4ccccc4[n+]13)[n+]1ccccc1-2 [I-k],398-413 nm
2,COC(=O)c1ccc2[c](c1)[Ir-3]13([c]4cc(C(=O)OC)ccc4-c4cccc[n+]41)([c]1n(CCCNC(=O)c4ccccc4SC/C=C(\C)CC/C=C(\C)CCC=C(C)C)cc[n+]1-c1cccc[n+]13)[n+]1ccccc1-2.F[P-](F)(F)(F)(F)F [II-c],398-413 nm
3,COC(=O)c1ccc2[n+](c1)[Ir-3]13([c]4ccccc4-2)([c]2ccccc2-c2ccc(C(=O)OC)c[n+]21)[c]1n(CCCNC(=O)[c-]2cccc2)cc[n+]1-c1cccc[n+]13.F[P-](F)(F)(F)(F)F.[Fe+2].c1cc[cH-]c1 [IV-e],428-438 nm
4,COC(=O)c1ccc2[c](c1)[Ir-3]13([c]4cc(C(=O)OC)ccc4-c4cccc[n+]41)([c]1n(CCCNC(=O)CCCC[C@@H]4SC[C@@H]5NC(=O)N[C@@H]54)cc[n+]1-c1cccc[n+]13)[n+]1ccccc1-2.F[P-](F)(F)(F)(F)F [I-c],398-413 nm
5,F[P-](F)(F)(F)(F)F.O=C(CCCC[C@@H]1SC[C@@H]2NC(=O)N[C@@H]21)NCCCn1cc[n+]2[c]1[Ir-3]13([c]4cccc5ccc6ccc[n+]1c6c45)([c]1cccc4ccc5ccc[n+]3c5c14)[n+]1ccccc1-2 [I-i],398-413 nm
6,COC(=O)c1ccc2[c](c1)[Ir-3]13([c]4cc(C(=O)OC)ccc4-c4cccc[n+]41)([c]1n(CCCNC(=O)[c-]4cccc4)cc[n+]1-c1cccc[n+]13)[n+]1ccccc1-2.F[P-](F)(F)(F)(F)F.[Fe+2].c1cc[cH-]c1 [IV-c],398-413 nm
7,F[P-](F)(F)(F)(F)F.O=C(NCCCn1cc[n+]2[c]1[Ir-3]13([c]4c(sc5ccccc45)-c4cccc[n+]41)([c]1c(sc4ccccc14)-c1cccc[n+]13)[n+]1ccccc1-2)[c-]1cccc1.[Fe+2].c1cc[cH-]c1 [IV-j],428-438 nm
8,COC(=O)c1ccc2[n+](c1)[Ir-3]13([c]4ccccc4-2)([c]2ccccc2-c2ccc(C(=O)OC)c[n+]21)[c]1n(CCCNC(=O)CCCC[C@@H]2SC[C@@H]4NC(=O)N[C@@H]42)cc[n+]1-c1cccc[n+]13.F[P-](F)(F)(F)(F)F [I-e],428-438 nm
9,F[P-](F)(F)(F)(F)F.O=C(NCCCn1cc[n+]2[c]1[Ir-3]13([c]4cccc5ccc6ccc[n+]1c6c45)([c]1cccc4ccc5ccc[n+]3c5c14)[n+]1ccccc1-2)[c-]1cccc1.[Fe+2].c1cc[cH-]c1 [IV-i],398-413 nm
10,F[P-](F)(F)(F)(F)F.O=C(NCCCn1cc[n+]2[c]1[Ir-3]13([c]4cc(F)cc(F)c4-c4cccc[n+]41)([c]1cc(F)cc(F)c1-c1cccc[n+]13)[n+]1ccccc1-2)[c-]1cccc1.[Fe+2].c1cc[cH-]c1 [IV-l],356-361 nm
11,F[P-](F)(F)(F)(F)F.O=C(CCCC[C@@H]1SC[C@@H]2NC(=O)N[C@@H]21)NCCCn1cc[n+]2[c]1[Ir-3]13([c]4ccccc4-c4c5ccccc5cc[n+]41)([c]1ccccc1-c1c4ccccc4cc[n+]13)[n+]1ccccc1-2 [I-h],428-438 nm
12,F[P-](F)(F)(F)(F)F.O=C(NCCCn1cc[n+]2[c]1[Ir-3]13([c]4ccccc4-c4ccc5ccccc5[n+]41)([c]1ccccc1-c1ccc4ccccc4[n+]13)[n+]1ccccc1-2)[c-]1cccc1.[Fe+2].c1cc[cH-]c1 [IV-g],428-438 nm
13,COC(=O)c1ccc2[n+](c1)[Ir-3]13([c]4ccccc4-2)([c]2ccccc2-c2ccc(C(=O)OC)c[n+]21)[c]1n(CCCNC(=O)c2ccccc2SC/C=C(\C)CC/C=C(\C)CCC=C(C)C)cc[n+]1-c1cccc[n+]13.F[P-](F)(F)(F)(F)F [II-e],428-438 nm
